Over roughly 33,000 sequences, “E-score (-0.5 to 0.5)” has its median near -0.012; the highest 2% begin near 0.29. This is one part of the list.
target: T1, Ybr033w (UniProt P38073); test: PBM E-score (8-mer binding enrichment) (E-score (-0.5 to 0.5)); higher = stronger / more preferred TF binding; most listed sequences are background and not binding sites; conditions: protein concentration: 200 nM; construct: GST-full length
T1 sequence: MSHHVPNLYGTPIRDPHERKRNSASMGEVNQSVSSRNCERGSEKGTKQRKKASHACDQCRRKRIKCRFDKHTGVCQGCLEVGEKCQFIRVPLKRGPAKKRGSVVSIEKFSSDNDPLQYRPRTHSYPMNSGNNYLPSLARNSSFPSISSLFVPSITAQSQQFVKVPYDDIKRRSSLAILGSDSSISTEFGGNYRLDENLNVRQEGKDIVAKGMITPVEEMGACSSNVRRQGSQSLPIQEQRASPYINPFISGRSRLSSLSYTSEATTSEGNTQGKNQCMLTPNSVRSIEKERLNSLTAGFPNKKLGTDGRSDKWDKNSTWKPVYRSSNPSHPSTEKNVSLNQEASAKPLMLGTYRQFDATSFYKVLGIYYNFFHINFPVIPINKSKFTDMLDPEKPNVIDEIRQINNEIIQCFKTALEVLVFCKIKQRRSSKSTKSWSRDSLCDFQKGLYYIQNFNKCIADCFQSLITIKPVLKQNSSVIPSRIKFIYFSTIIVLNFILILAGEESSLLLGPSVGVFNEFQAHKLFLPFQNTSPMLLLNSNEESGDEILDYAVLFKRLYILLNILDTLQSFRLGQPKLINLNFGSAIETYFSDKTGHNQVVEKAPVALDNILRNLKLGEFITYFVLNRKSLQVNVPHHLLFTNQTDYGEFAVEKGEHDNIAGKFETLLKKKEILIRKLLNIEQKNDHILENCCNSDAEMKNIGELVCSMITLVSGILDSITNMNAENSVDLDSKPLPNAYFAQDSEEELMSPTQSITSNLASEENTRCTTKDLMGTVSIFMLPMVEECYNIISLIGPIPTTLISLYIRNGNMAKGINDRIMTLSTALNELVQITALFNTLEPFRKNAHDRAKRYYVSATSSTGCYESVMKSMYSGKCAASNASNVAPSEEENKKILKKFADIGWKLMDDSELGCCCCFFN
Method in brief: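 For each ungapped eight-base word taken together with its reverse complement, the Universal PBM Analysis Suite assigned an E-score. Binding data came from GST-tagged yeast transcription factors, applied at about 100-200 nM, on universal all-10-mer Agilent arrays made double-stranded by primer extension. Fluorescent anti-GST marked bound protein, and scans were normalised with masliner.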

Sequence	PBM E-score
CGGACTAC	0.0421
AGCCGGTG	-0.201
CTCGCAGA	-0.19
ATCCTACC	-0.00627
ACGTCCAT	0.00324
GAGGGTAC	-0.292
AGGTGATC	-0.0226
GGAATTGA	0.0753
ACTAATGA	0.272
CACTCGTA	-0.117
GGGTTACA	-0.0926
ACGTATTA	0.229
ATTGAAAC	0.164
TCCGCTCA	-0.115
CGAATTCA	-0.00151
AAATGGCG	-0.00813
CTGGATCA	0.228
CCTACGTA	0.0174
CGGCAATA	0.085
TAGAACTA	0.151
AGCCAGGC	-0.0905
ATCGGTTG	0.105
ATGAGGCG	-0.147
CTGGGGGC	-0.297
ACGATAGT	0.188

Sequence	PBM E-score
GGAGTTCA	0.0457
AGCAATGA	0.13
TGATCACA	-0.021
AGCAACGG	0.0639
CTGGTGTC	-0.153
ATTTTTAG	0.179
ACTCACGA	-0.00501
CACAATCC	0.0977
AAGGAGCA	-0.0833
CTCGACAG	-0.106
AACGAACT	0.0287
CCAAACTA	0.169
CGGAAAGA	-0.0353
GAGCTGCC	-0.161
TCGTCGCA	0.126
CCATAACC	-0.122
GACACTGC	-0.0727
AGCCAAAT	0.102
AAATGTCG	-0.0162
CCGTCTGC	-0.122
ATGCGGTA	-0.133
ACAACGAG	-0.0168
TATTACAA	0.307
CTAGGGGA	-0.283
CAGTCACA	0.0905

Sequence	PBM E-score
AATCTCAT	0.166
ACACCAAA	0.175
GCACGTGC	-0.192
GCTGGAAC	0.106
CGGATTCC	-0.0535
AGGTAACC	-0.0673
GAGGGCGA	-0.321
CTGATTCC	-0.0421
CAGAGGTC	-0.228
CACGCCAC	-0.0948
AAGCACGA	0.156
AAAACAAA	0.176
CGTCACGC	-0.0176
CCCGATCC	-0.326
GCATTTAC	0.109
AATAGTTG	0.207
AGTTGCCC	0.0108
GGGAAAAA	0.453
AGCCCACC	-0.26
ACATTGAT	0.197
CGAGGAGA	-0.283
ATCTGTGC	-0.0169
ACAGCGCG	-0.0663
AGGAAGTC	-0.107
AAGGCAAG	-0.0759

Sequence	PBM E-score
AGTAGATA	0.311
GCCCGACC	-0.274
AGTAATGA	0.281
CGCGCCTC	-0.0262
AAGTCAGT	0.0918
GTTCCAAA	0.146
ACCTCGAC	-0.0537
CTAGGGTA	-0.17
ATTCTATC	0.0825
AGGACACC	-0.0835
AATAGCAG	0.00447
AATCGGTG	-0.138
GATCATGC	-0.043
AGGTGGGA	-0.224
AATAAACA	0.244
ACCGCTGA	-0.108
GGCATATA	0.16
CCAAACGC	-0.0491
TGGGTAAA	-0.0284
ACGTTGTG	-0.101
CGGCGACA	-0.235
AATGGGAG	0.0819
GACTCCGA	-0.0632
ACGTCTCC	-0.133
GAGAAATC	0.248

Sequence	PBM E-score
ATCTTTGA	0.237
GCCGACAA	-0.0857
AAGCCCGT	-0.245
AAGACTAG	-0.223
GTCTTGAA	0.0898
CTTCAGCA	-0.0778
TAAAAACA	0.221
ACCCGATG	0.0183
GCACAGCC	-0.0782
CGGAACCG	-0.152
CGTAACCA	0.106
CCTTCCCC	-0.259
ACACCAGA	0.059
CCAAGGGC	-0.153
AAACGTTA	0.108
AATGGGAT	-0.0179
CACGAGAG	-0.159
CTAATCTC	-0.0112
TCAGCTAA	0.0703
GACCTGAA	-0.0895
CGCATGTC	-0.105
GATACATA	0.263
AAAGTGGG	-0.0583
AATTATAT	0.271
CGCGCGAG	-0.0674

Sequence	PBM E-score
AGAACAAA	0.33
CAGCTAGC	-0.152
CGGTTTAC	-0.049
TTTAGAAA	0.273
CGATCTCC	-0.0779
GCTCTATA	-0.218
AGTCCTGA	-0.0791
AATGGACT	-0.032
CTGACTGA	-0.175
GTTTGCCA	0.0264
AAACCCAT	0.155
ACGAGACG	-0.0628
AACCGTGT	0.0694
AGTGCCGG	-0.16
ATGATGGG	-0.214
GCGTCAAC	-0.174
ATAGCAAG	0.0646
AGCTTGAT	-0.0565
CACTAAGC	0.093
ACTGCACC	-0.018
CACGCAAG	0.073
GTTAGTCA	0.0324
CGGGGACA	-0.307
CATTGAGC	-0.0469
TAGTCAAA	0.225

Sequence	PBM E-score
TTACGGAA	0.13
CGAAGAGC	-0.0243
ACGGTCCT	-0.389
CGATCTTA	-0.0455
ATGCGCTA	0.0737
CCGCGTAA	-0.12
CTTAAGAC	-0.0563
CTGAGGCA	-0.251
CAACTCAA	0.261
CGATGCGC	0.0464
CGTAAAAG	0.215
AACGATAT	0.265
AAAATCCG	0.226
ATACTATA	0.217
AAAATCGA	0.16
GCGTCTGA	-0.0106
ATCCCCCA	-0.371
GAACGCCC	-0.0907
GCCTAAGC	-0.182
ACTGGAAG	0.0135
ATGTGATA	0.104
AATTACGT	0.0775

Reference: the supplement of paper PMC3334620
